# Assay results taken from PMC12136788.
# This is one part of the list.
# T1: UNK ZnF1-3 (human, UniProt Q9C0B0 31-174)
# T1 sequence: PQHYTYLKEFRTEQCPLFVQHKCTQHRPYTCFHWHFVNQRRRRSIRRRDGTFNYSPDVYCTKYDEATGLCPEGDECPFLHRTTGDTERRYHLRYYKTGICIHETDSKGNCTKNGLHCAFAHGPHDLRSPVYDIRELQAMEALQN
# B1: chr7:151048522:151048523:+_ENSG00000013374_ENST00000566856|hu_mus|hu_hu_hu_mus_True|18_108 (ssRNA)
# RNA: GGGAGUUCUACAGUCCGACGAUCCUGCUUCUUAUUUAUUACGAUCUUGAUGUAAUUUUCUUGAAAUCCGAAAGUUUCAGCUAUUUGACACCUCAGGUCUCUACCAGUGACAUGCAAUCGGGUCUCCAACAAGCUUUUCUUAUCCAACAGAGGAUUGAGCAUCA
# B2: chrX:140365796:140365797:-_ENSMUSG00000031285_ENSMUST00000033642|mus_mus|mus_mus_mus_hu_False|8_108 (ssRNA)
# RNA: GGGAGUUCUACAGUCCGACGAUCCUUCUCAUUACUUAGUGCCUGCAAGGUUCUGGUUCGGUAGAAGCUACAGUGGGCGCUGUGAGUGGGGCUAGGCAACCCAUUCAUCCGGGAGCCUCGCAUGUUCCUAGAUGCUUUAUCUCUCAACAGAGGAUUGAGCAUCA
# B3: chr14:89305849:89305850:+_ENSG00000165533_ENST00000346301|hu_mus|motif|central (ssRNA)
# RNA: GGGAGUUCUACAGUCCGACGAUCAGCAUUUUCAUCCAGGAUCAUUUCAGCAAUUCCUUCCUGGUCCACAUCAAUUUCAUCGGUGUACACCAUCUCUGUCAGCGCCCGUGCUUUCAAAAUCCAAGCCGCCUGAUCAUAAGGGGACAACAGAGGAUUGAGCAUCA
# B4: 55394983_55397375_5385_CDS_ENSMUSG00000021488_ENSMUST00000099490|mouse|control|control (ssRNA)
# RNA: GGGAGUUCUACAGUCCGACGAUCAGGAUGGCAGAUCUCAGCUGGCCACCACCUGUAGCGACCAACUUUUACCCAGACAAUCUCCCUGUAGUGUGGCUUUUUGCCUGCCUUACAGUCAUUGCAGUACCAAUUUCCUUCAGGGAUCAACAGAGGAUUGAGCAUCA
# B5: chr4:17845017:17845018:+_ENSG00000109805_ENST00000514176|hu_mus|hu_hu_hu_mus_False|58_78 (ssRNA)
# RNA: GGGAGUUCUACAGUCCGACGAUCGCUCUCUUAACUUGUAUCUUCAUUAAGGAACUCGCAAGGUUAAAGUUUACUUUUUCUAGUGCUAGCUGUUUUGGCUCGUCUGGGUAAUCUCAUCUUCAUUUCUGAUGGUGGUUCAUGAUCCAACAGAGGAUUGAGCAUCA
# B6: chr11:97022710:97022711:-_ENSMUSG00000001440_ENSMUST00000001479|mus_mus|motif|central (ssRNA)
# RNA: GGGAGUUCUACAGUCCGACGAUCCACUUUAAAAAAUUACUAAAGCGUGCGAGCAGGGUCACCAUCUGACACCAUUUUACGGAUCUUCAACUUCAGUGGAAAAAUAGAGCCUUCUUCCUGGUGCCAUUUUCAUCACAACAGUUGCAACAGAGGAUUGAGCAUCA
# B7: chr19:56882518:56882519:-_ENSMUSG00000035173_ENSMUST00000118592|mus_mus|FALSE|FALSE (ssRNA)
# RNA: GGGAGUUCUACAGUCCGACGAUCCUGAGACAGCUGCUUAAUUUUGUUAGUGUUUUUCUCCAAUUCCUUACUUGCAUCUCUAAGUUUCCUCUCAAGGGUUUCUUUUUCCUUUCGCAGGUCUAGAGCCUCCUUCUCGCCUCUCACCAACAGAGGAUUGAGCAUCA
# B8: chr11:9452432:9452433:+_ENSG00000205339_ENST00000379719|hu_mus|motif|central (ssRNA)
# RNA: GGGAGUUCUACAGUCCGACGAUCAAAUGUCAUUGCCAGAUGUUGUGUCAUUUCUACAGCAAUAGGAGUAACUUCUUCACGGUAUUCACAGAUCAUUUUCUGAAUUACAUUUGUAAGAUCAUCAUUUUCUGUUUCUCUUAUAAUCAACAGAGGAUUGAGCAUCA
# B9: chr15:84030238:84030239:+_ENSMUSG00000022437_ENSMUST00000023071|mus_mus|FALSE|FALSE (ssRNA)
# RNA: GGGAGUUCUACAGUCCGACGAUCGUUUCCAACCAUGGUGUUGUAACUGCCCGUCAGUCUCCUCAGCUCUGUCACUUCAAAGGUGACAUCUAACCCAUUGGGCAGGGCAUCUUCACCAUGACAUGUAUCGAUCAAAACAUCCACCAACAGAGGAUUGAGCAUCA
# B10: 35299762_35309300_591_3pUTR_ENSG00000101079_ENST00000349004|human|control|control (ssRNA)
# RNA: GGGAGUUCUACAGUCCGACGAUCAAAAUAAUGUCCACAACAUUGGUUGUCAGGCCAGAGAGUUUGGAAGCUGCCCAGUCAAUCCAGCCUUUAGCGCAAGGGUCAACAUUAAUGAGCACAAGGCCUUCCACAAGCUCUGGAUGGCAACAGAGGAUUGAGCAUCA
# B11: chr7:90019490:90019491:+_ENSMUSG00000057706_ENSMUST00000082237|mus_hu|FALSE|FALSE (ssRNA)
# RNA: GGGAGUUCUACAGUCCGACGAUCUCCGUCACAAUUGUGUGAUUAUUAAAAUAAUACAGUGUUCUUUGCCAUAAGGCCAUACUAAAAUAAAAAGAUUUAACCCAGCUACAAAAAAGUUCACUGAACUUAAAUUAAAAUACUUGUCAACAGAGGAUUGAGCAUCA
# B12: 87969002_87969122_5758_CDS_ENSG00000188994_ENST00000369577|human|control|control (ssRNA)
# RNA: GGGAGUUCUACAGUCCGACGAUCUUUACCAUAGUGCUUAAAUAGUGCAUCCUUUGUCAUAGCACUGUAGUUACAGCCUUGGUUUUGACACACAAAGGGUUUAUUAACUUUGUCAUUAAAUUGAAUGUUUAUCAUUUCAGAAACCAACAGAGGAUUGAGCAUCA
# B13: 6602608_6602728_96_3pUTR_ENSG00000111639_ENST00000229238|human|control|control (ssRNA)
# RNA: GGGAGUUCUACAGUCCGACGAUCUUUCAAGAAAAUUCACCCUUUCCGCUUUCUUUGGCGUCCUUCAACCGUGAAGGAAAUGAAGGUUGAGAACCUGGAACCCGCUUCCAAUGACCAAGCCCUUUCUCUGUGCCUCACAACAGUCAACAGAGGAUUGAGCAUCA
# B14: 8059404_8059524_152_3pUTR_ENSMUSG00000022142_ENSMUST00000163765|mouse|control|control (ssRNA)
# RNA: GGGAGUUCUACAGUCCGACGAUCCCGCGUUUUCCAAAGCUUCCUGCAGGGAGGCGGCGGCCGACGUAGAGGCCACCAUCAUAGAGCCCAGCACCGAUGGCAUGUCGGCAAUCGUGGCCACCGCCUUAUAGAAACACUCCAAACCAACAGAGGAUUGAGCAUCA
# Biological target: T1, UNK ZnF1-3
# Assay: nsRBNS (natural sequence RNA bind-n-seq); RBNS binding buffer (assumed for nsRBNS): 25 mM Tris pH 7.5, 150 mM KCl, 3 mM MgCl2, 0.01% Triton X-100, 500 ug/ml BSA, 20 U/ml SUPERase-In, 4 C; UNK is unkempt and MSI1 is Musashi-1; names of the RNAs are library labels; protein concentration not given here; high values mean tight binding
row,Binder,binding signal [enrichment R]
1,B1,0.658
2,B2,0.682
3,B3,1.63
4,B4,0.329
5,B5,0.375
6,B6,1.13
7,B7,0.446
8,B8,0.582
9,B9,0.736
10,B10,1.27
11,B11,2.43
12,B12,0.646
13,B13,0.983
14,B14,0.812
